Sequences with one replicate were seen in a single cluster, so their values are uncertain.
These sequences were tested on ATP (assay: switch fluorescence ratio, 500 uM ATP over buffer (Cy3 cluster intensity, sum of 5 cycles each) (fold (ratio)); higher = stronger signal-on switching upon ATP binding; sequences stand for … in TCGTCGGCAGCGTCAGATGTGTATAAGAGACAGTTTTTTTTTTTTTTTTTTTTTTTTT…TC). Details: aptamer strand: ATP DNA aptamer (quencher-CACCTGGGGGAGTATTGCGGAGGAAGG + anchor), 100 nM annealed; ATP concentration: 500 uM; one replicate.
Procedure, shortened: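 Cy3-labelled switching-strand clusters on a modified Illumina MiSeq flow-cell were annealed to 100 nM quencher-labelled ATP aptamer and imaged first in selection buffer, then after 15 min with 500 uM ATP at 22 °C. NaOH stripping and re-annealing separated each of five buffer/ATP cycles, and clusters outside 100-1000 RFU were excluded. The fluorescence ratio sums target-cycle Cy3 intensity over buffer-cycle Cy3 intensity per cluster and averages it per switch-domain sequence.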
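Also: ATP exposure 15 min at 22 °C before imaging.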

Sequence	switch fluorescence ratio
GTTTGCGT	0.979
GGAGCAAGCA	2.91
ACGGGGCGTG	0.999
AGGCCAATCA	0.982
CCGTTCGAGG	0.998
GCAGACTCTG	0.984
CTGGTTGGTA	0.967
CTTTAGGGGA	1.01
AAAATACCGA	1.03
GCAGCTATAG	4.36
GGGCTAGGCC	0.973
ATCGCTAGGC	1.24
TGATTCGCGG	0.993
TAGTTCAAGA	0.971
TTGGGATCTC	1.04
ATGCGGTCC	1.02
CCCTCCCCAC	3.41
TCGGGTGCTT	1.02
CGCGGCTTGA	1.05
CTTAAATAGA	0.958
TTTATCTAGC	1
TAAACTTTAC	1.22
CCATGCTGAC	1.77

Sequence	switch fluorescence ratio
TCAGGTGTAC	1.47
ATGAGCGCCT	1.04
ACCATTACTT	1.22
CCTGACGATG	2.34
TTTACTCATA	1.04
GATTGCCCGC	1.05
ATTAGTTTCG	1.02
GGACCTTTCG	1.03
GCTACTGTT	0.978
GCGGTTGACG	1.12
CAACACCGAT	0.994
TTATATTAAT	0.986
TTGGTGAGTA	0.98
GAGGTGTCTG	0.996
CTCCTTTGTT	1.65
TTAGGTACT	1.02
GTCCACCGCT	2.48
TGTATAGCCG	0.797
TGAACACTCT	1.05
AAATCAAGG	0.971
CATTATGTA	0.994
ATGTATAATG	0.955
CGTGTACGCG	0.979

Sequence	switch fluorescence ratio
AACGGAGGCG	1.01
GTTTAGCCT	1.03
GGAAAAAAGC	0.957
CGCCTTAGAG	0.983
GTCTACACTG	1.06
GACAGAGTAC	1.02
GATACATGTT	1.05
ATGCCACCTC	1.03
CTGGGTTTA	1.06
ATTTAGAATT	0.997
GGGGTCATAC	1.04
TGGGAGATCT	0.976
ACCAGAACAG	1
AAGCTTTGCC	0.962
TGATACGATA	1.05
GGGTCTAGCA	0.998
AAACGCACT	1.83
TACCGGGGAT	0.949
CATGTCGCGT	1.04
GCCTGAAGGC	0.969
GGAGTTAGCC	1.01
CAGACCAACC	1.19
AATAGTATTG	0.954

Sequence	switch fluorescence ratio
ACTCGTGCCA	0.992
CTAGTAAGTC	1.53
TGTGGAGACG	0.889
CGAACTCAGA	1.03
TCGTAAGTTA	0.982
CCACGCGCTG	1.09
CATTATGAA	1
CCATGTAGTG	1.03
CATCGGTCTC	1.01
TCAGGGGTA	1.04
CTGTCAGCGC	1.04
GTAATAACC	1.02
CGAGTTGCTA	1.02
GCATATGCCA	1
GCTACGTCCA	1.05
ACCTCGGCTA	2.37
TCCGCATAAA	4.53
CCCGTTTCTG	1.05
AAGGTTCGGA	1.01
GGGACGGTAT	0.96
TAGGCTGGTG	1.01
GGATCACAGG	1.08
TCAGTAGTCG	0.989

Sequence	switch fluorescence ratio
TCTGAGGTGG	0.98
ATTCCGTCTG	1.02
CACGGCCTTG	1.01
TTCACGGATA	1
TGCTGTTGAT	0.965
GGGCTCTAGT	0.978
TGTGACGAAT	0.973
CAACGGGGAT	0.999
CTAAGGGCTC	1
TTCGGATCCT	1.02
TACAGGTATA	1
AGATGAATAA	0.994
GCGTGGCCGG	1.03
CCAGCCCGGA	1
GAACGACGAG	0.977
AGTGTCCACC	0.975
TGAACCTGTT	0.946
GTCGGGATAG	1.14
TAATCGGTAC	1.06
TATCGAACCT	2.14
CGAGGAATTA	1.02
GTCGATCAAC	1.04
CGCGAAGCCC	1

Sequence	switch fluorescence ratio
CCACTTGGCT	0.99
TAGGATAGAG	0.983
ATCAAGCGAC	1.1
GCGTTCGTTA	0.994
GCGTAGTGTT	0.997
CGGATAAGAC	1.15
TTTACCCCTT	1.34
CGACCTATTA	1.04
CTAGTTTTAC	1.03
TAATAGAGAA	0.971
TAATCTATCA	1.01
AATTTAGAAT	1.03
GCCACGCAAC	1.18
GTGTAGGCAG	1.02
CTGACGCGTC	1.17
TTATCATTCC	1.38
CCCCTCTTGA	1.03
ATTCGGATCA	0.979
TTATGCTGTG	1
GGGAAAAGTG	0.933
ACGGGGGCTA	1.02
GCTTGGACCT	1.12
TCGAAAGCGA	1.66

Sequence	switch fluorescence ratio
TTCAGTGAAG	1.02
TGTCCGAAGC	2.39
GACAGGTTCG	0.991
TTTTGGTCCC	1.04
GATGTCTACG	1.01
GACAGGTAGT	1.07
TGGTATATTT	0.943
GCTAAGTAGC	0.966
AGTTATCTCA	0.983
CACCAAAGCC	1.11
TATTTCTACG	1.07
GGTGACGAGG	1.04
AACGACTGAT	1.03
CTTCGGAGCA	3.94
CACTTCCAGC	1.17
TTCGCTATCT	2.16
AGTATTACAT	0.991
ATTACCGTC	1.05
TTATGAAGCG	1.01
